# From PubChem BioAssay AID1508642 (National Center for Advancing Translational Sciences (NCATS), 2021)
# Screen size: about 43,000 compounds; about 200 (0.47%) were called active. Another 12% or so got no clear call; they are omitted. Calls follow the shape of the dose curve; as a rule, active = well fitted cell-killing curve with a large enough effect; inconclusive = small, poorly fitted or top-dose-only effect, or effect the other way; inactive = flat fitted curve, though single readings scatter. The list shows a part of the results.
# Assay: Cell viability qHTS assay in S16 Pmp22-F2sN cells; also: nearly all actives have a fitted effect of over 65% in size
# Conditions: S16 Pmp22-F2sN Schwann cells viability, CellTiter-Glo, 24 h; series mostly up to 57.5 µM; activity change, negative = cytotoxicity: at the top concentration
# Method in brief: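 S16 Pmp22-F2sN Schwann cells (500-1,000/well) in phenol-red-free DMEM with 10% FBS received 23 nL compound by pin tool for 24 h at 37 °C. Viability was then read as CellTiter-Glo luminescence after 15 min at room temperature.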
# % is scaled to controls: 0 for no effect and ±100 for the full control effect.
row,Compound,"activity change, negative = cytotoxicity"
1,CCOCCCNC(=O)CCC(=O)NNc1nc2ccccc2c2nc(-c3ccccc3)nn12,inactive: -7.73%
2,O=C(CCc1nnc2n(Cc3ccccc3Cl)c(=O)c3ccccc3n12)Nc1ccc(F)c(F)c1,inactive: 7.89%
3,O=C(NCc1cccc(Br)c1)C1CCN(C(=O)c2sccc2-n2cccc2)CC1,inactive: -18.3%
4,Cc1ccc(-n2nc(CO)c(C(=O)NCC(c3ccccc3)c3ccccc3)n2)cc1,inactive: -4.64%
5,Cc1ccc(-c2cn3c(n2)sc2cc(C(=O)NCc4cccs4)ccc23)cc1,inactive: 8.49%
6,CC(=O)N1c2ccccc2CC1C(=O)N1CCN(c2cccc(Cl)c2)CC1 (stereo unspecified),inactive: 13.9%
7,O=C(CC1C(=O)N(c2ccc(F)cc2)C(=O)N1Cc1ccc2c(c1)OCO2)Nc1ccc(F)cc1 (stereo unspecified),inactive: 7.75%
8,COc1cccc(-n2cc(C(=O)Oc3cccc(C(F)(F)F)c3)c3ccccc3c2=O)c1,inactive: 4.39%
9,Cc1ccc(O)c(NC(=O)c2noc3c2CCCCC3)c1,inactive: -4.9%
10,CCOC(=O)c1cnc2c(C)cccc2c1NCCc1ccc(OC)c(OC)c1,inactive: -9.42%
11,Nc1c(-c2nc(-c3cccs3)no2)nnn1-c1cccc(F)c1,inactive: 7.05%
12,Cc1ccc(C)c(CN2C(=O)c3ccccc3S(=O)(=O)c3ccc(C(=O)N4CCCC4)cc32)c1,inactive: -4.81%
13,CCN(c1ncnc2c1cnn2-c1cc(Cl)ccc1C)C1CCCCC1,inactive: -7.99%
14,CCOc1ccc(OCC)c(NC(=O)C(NS(=O)(=O)c2ccc(Br)s2)c2ccccc2)c1 (stereo unspecified),inactive: 7.33%
15,COc1cccc(CNC(=O)CN2C(=O)CCCc3ccccc32)c1OC,inactive: 11.5%
16,O=C(NCc1ccco1)C1CCN(C(=O)N2CCOc3ccc(Cl)cc32)CC1,inactive: -13.5%
17,O=S(=O)(NCCc1csc2nc(-c3ccc(Cl)cc3)nn12)c1ccc(Oc2ccccc2)cc1,inactive: -5.14%
18,CC(=O)c1cccc(NC(=O)CSc2nnc3ccc(-c4ccc(C)cc4)nn23)c1,inactive: 3.04%
19,Cc1ccccc1-c1nc(C(N)=O)c2c(n1)n(-c1ccc3c(c1)OCO3)c(=O)n2C,inactive: -3.48%
20,Cc1ccc(C)c(Cn2c(=O)n(Cc3ccc(C(=O)NC4CCN(Cc5ccccc5)CC4)cc3)c(=O)c3ccccc32)c1,inactive: 18.9%
21,Cc1cc2c(cc1S(=O)(=O)CCC(=O)NC1CCC(C)CC1)OCC(=O)N2 (stereo unspecified),inactive: -2.92%
22,O=C1CC(c2nnc(Cc3ccc(Cl)cc3)o2)CN1c1ccccc1 (stereo unspecified),inactive: 5.48%
23,CCn1c(=N)c(C(=O)NC2CCCCC2)cc2c(=O)n3cccc(C)c3nc21,inactive: 2.21%
24,O=c1cc2nc(-c3cccs3)nc(SCCOc3ccc(Cl)cc3)n2[nH]1,inactive: -18.8%

row,Compound,"activity change, negative = cytotoxicity"
1,Cc1ccc(N2CCN(C(=O)NCc3noc4ccccc34)CC2C)cc1 (stereo unspecified),inactive: -10.3%
2,COc1ccccc1N1CCN(C(=O)c2cnn(-c3ccc(C)c(C)c3)c2C2CCN(C(=O)OC(C)(C)C)CC2)CC1,inactive: 0.406%
3,COc1cc(Cl)c(C)cc1Nc1nc2ccccc2nc1NS(=O)(=O)c1ccccc1,inactive: -6.26%
4,CCCOc1ccc(C(=O)N(Cc2cccs2)c2ccc(C)cc2)cc1,inactive: -7.61%
5,COc1ccc(Cl)cc1S(=O)(=O)N1CCN(Cc2cccc(F)c2)CC1,inactive: 14.6%
6,CCOC(=O)c1c(C)oc2ncnc(NCCCN3CCN(c4cc(C)ccc4C)CC3)c12,inactive: -27.1%
7,CCOC(=O)c1ccc(NC(=O)C2CCN(C(=O)N3CC(C)Oc4ccc(C)cc43)CC2)cc1 (stereo unspecified),inactive: -20.2%
8,COc1ccc(S(=O)(=O)n2nc(C)c(S(=O)(=O)N3CCCCCC3)c2C)cc1OC,inactive: 11.2%
9,Cc1ccccc1C(=O)Nc1nnc(SCc2cc(=O)n3ccccc3n2)s1,inactive: -1.99%
10,CCOc1ccc(C(=O)CSc2nnc3cc(C)c4ccccc4n23)cc1,inactive: -0.525%
11,CCOc1cc(C(=O)Nc2nnc3n2CCS3)cc(OCC)c1OCC,inactive: 12.5%
12,COc1ccccc1CNC(=O)COc1cc(=O)n(C)c2ccccc12,inactive: 4.94%
13,CN1CCN(C(=O)c2ccc3c(c2)N(Cc2c(F)cccc2Cl)C(=O)c2ccccc2S3)CC1,inactive: -5.96%
14,CCc1sc(Nc2ccc(Cl)cc2)nc1-c1cc2cccc(OC)c2oc1=O,inactive: -3.58%
15,COc1ccc(-c2noc(N3CCN(c4cccc(Cl)c4)CC3)n2)cc1OC,inactive: -5.57%
16,CC(C(=O)Nc1ccc(F)c(Cl)c1)N1Cc2ccccc2C1=O (stereo unspecified),inactive: 7.15%
17,Cc1cc(OCC(=O)Nc2cc(-c3nc4ccccc4[nH]3)ccc2C)ccc1Cl,inactive: -10.5%
18,CCSc1oc(-c2ccc(F)cc2)nc1S(=O)(=O)c1ccc(C)cc1,inactive: -4.44%
19,CCCCC(CC)CNC(=O)c1ccc2c(=O)n(CCOC)c(=O)[nH]c2c1 (stereo unspecified),inactive: -9.93%
20,Cc1ccc(N(CC(=O)NCC(C)c2ccccc2)S(=O)(=O)N(C)C)cc1 (stereo unspecified),inactive: 6.59%
21,CC(=O)c1cccc(S(=O)(=O)N2CCN(c3ccccc3F)CC2)c1,inactive: -8.14%
22,Cc1cc(S(=O)(=O)C(CNC(=O)COc2ccccc2)c2cccs2)ccc1F (stereo unspecified),inactive: 4.9%
23,Cc1ccc(-c2nn(CC(=O)NC3CCCC3)c3c2cnc2ccc(F)cc23)cc1C,inactive: 19.2%
24,CCOc1cc2sc(N3CCC(C(=O)Nc4ccccc4Cl)CC3)nc2cc1Br,inactive: 16.6%

row,Compound,"activity change, negative = cytotoxicity"
1,COc1ccc(OCCSc2nc(C)c(Cc3ccccc3)c(=O)[nH]2)cc1,inactive: -2.98%
2,COc1ccccc1Cn1cc(C(=O)c2ccc(Cl)cc2)c(=O)c2cc3c(cc21)OCCO3,inactive: 1.42%
3,COc1ccc(Oc2nc3c(c(=O)n(C)c(=O)n3C)n2Cc2ccccc2Cl)cc1,inactive: -25.8%
4,COc1ccc(NC(=O)CCN2CCN(CCO)CC2)c(OC)c1,inactive: -1.62%
5,O=C(Nc1ccc2nc(SCc3ccccc3)sc2c1)c1cccc(F)c1,inactive: 7.77%
6,COc1cc(C2c3c(-c4c(C)cc(C)cc4O)n[nH]c3C(=O)N2CCO)cc(OC)c1OC (stereo unspecified),inactive: 1.32%
7,CN(C)S(=O)(=O)c1ccc(C(=O)NCCS(=O)(=O)N2CCN(c3ccccc3)CC2)cc1,inactive: -5.07%
8,Cc1ccc(-c2cc(-c3ccc4c(c3)NC(=O)CO4)nc3c2COc2ccc(C)cc2-3)cc1,inactive: 19%
9,Cc1ccc(CN(C(=O)COc2ccc(Cl)c(C)c2)c2ccccn2)o1,inactive: -0.763%
10,O=C(CN1C(=O)COc2ccc(S(=O)(=O)N3CCOCC3)cc21)N1CCN(c2cccc(C(F)(F)F)c2)CC1,inactive: -1.64%
11,Cc1ccc(C(=O)/C=C/c2cn(CC(O)CN3CCc4ccccc43)c3ccccc23)cc1 (stereo unspecified),inactive: 1.67%
12,COc1ccc(OC)c(CNC(=O)c2cc3cc4ccc(OC)cc4nc3o2)c1,inactive: 4.14%
13,Cc1cc(NC(=O)c2ccccc2Cl)ccc1NC(=O)c1ccccc1,inactive: -0.815%
14,COc1ccc(-c2noc(COc3cc(C)c(Br)c(C)c3)n2)cc1OC,inactive: 4.79%
15,COc1cccc(NC(=O)CSc2nc3c([nH]c4ccccc43)c(=O)n2-c2ccccc2)c1,inactive: -2.49%
16,CCOc1ccccc1NC(=O)CSc1nnc(N)s1,inactive: -1.74%
17,Cc1ccc(NC(=O)CSc2nnc(C)n3c2cc2sccc23)c(C)c1,inactive: 18.1%
18,Brc1ccc(-c2nnc3sc(CN4CCCCC4)cn23)cc1,inactive: 18.8%
19,Cc1ccccc1-c1nnc(CN2CCN(c3cccc(C)c3C)CC2)o1,inactive: 1.91%
20,COc1cc(C(=O)NCC(c2cccnc2)N2CCc3ccccc3C2)cc(OC)c1OC (stereo unspecified),inactive: -17.2%
21,CCC(=O)Nc1ccccc1-c1nc2ccccc2n(CC(=O)c2ccc(C)c(C)c2)c1=O,inactive: 3.46%
22,COCCNC(=O)C(=O)NCC(c1cccnc1)N1CCN(c2ccccc2OC)CC1 (stereo unspecified),inactive: 11.6%
23,Cc1ccc(CSc2ccc(-c3cccs3)nn2)cc1,inactive: -0.107%
24,O=C(NCc1ccccc1Cl)c1cc2c(s1)-c1ccccc1SC2,inactive: -13.6%

row,Compound,"activity change, negative = cytotoxicity"
1,O=C(NCc1ccco1)c1c[nH]c2ccc(S(=O)(=O)Nc3ccc(F)cc3F)cc2c1=O,inactive: -1.31%
2,CCCCNc1nc2c(S(=O)(=O)c3ccc(Cl)cc3)nnn2c2ccsc12,inactive: -0.0981%
3,COc1cccc(CNC(=O)c2ccc3c(c2)N(Cc2ccc(C(F)(F)F)cc2)C(=O)c2ccccc2S3)c1OC,inactive: -5.25%
4,CN1CCN(C(=O)c2cnn(-c3cccc(Cl)c3)c2C2CCN(C(=O)OC(C)(C)C)CC2)CC1,inactive: -5.25%
5,CC(C)CCNC(=O)CN1C(=O)c2cccnc2Oc2ccccc21,inactive: 6.06%
6,N#Cc1ccccc1S(=O)(=O)N1CCCC(c2nc3c(nnn3Cc3cccc(Cl)c3)c(=O)[nH]2)C1 (stereo unspecified),inactive: -13.6%
7,CN(C)c1ccc(C(CNC(=O)c2ccccc2F)N2CCc3ccccc32)cc1 (stereo unspecified),inactive: 0.759%
8,Cc1csc2nc(CCNS(=O)(=O)c3ccccc3)cn12,inactive: 0.56%
9,COC(=O)c1ccc([C@H]2Nc3ccc(S(=O)(=O)Nc4ccc(C)cc4)cc3[C@H]3C=CC[C@H]32)cc1,inactive: -14.7%
10,CCOC(=O)c1cc(-c2ccc(F)cc2)n(CC(=O)NCc2ccc(OC)cc2)c1C,inactive: -4.28%
11,Cc1ccc(CN(Cc2ccco2)C(=O)COc2ccc(Cl)cc2Cl)cc1,inactive: -21.4%
12,COc1ccc(-c2nnc(SCC(=O)NCc3ccccc3)nc2-c2ccc(OC)c(OC)c2)cc1OC,inactive: 0.982%
13,CCOc1ccccc1CNC(=O)CN(c1ccc(C)cc1)S(=O)(=O)N(C)C,inactive: -7.87%
14,CC(C)(C)c1ccc(S(=O)(=O)c2cnc(SCC(=O)Nc3ccc(F)c(Cl)c3)[nH]c2=O)cc1,inactive: 6.17%
15,COc1cccc(-c2nc(CS(=O)(=O)CC(=O)Nc3cc(F)ccc3F)c(C)o2)c1,inactive: 8.14%
16,Cc1ccc(NC(=O)CSc2nc3ccccc3c3nc(CCn4cncc4C)nn23)c(C)c1,inactive: -2.33%
17,Cc1ccc(OCC(=O)N(Cc2ccco2)Cc2ccco2)cc1,inactive: 0.705%
18,CCN(CCCNC(=O)CSc1cc(=O)n(C)c2cc(Cl)ccc12)c1cccc(C)c1,inactive: -28%
19,Cc1c2cnn(-c3ccccc3)c(=O)c2c(C)n1CC(=O)N1CCN(c2ccc(F)cc2)CC1,inactive: -29.2%
20,COc1cc(-c2noc(-c3ccc(N4CCOCC4)c([N+](=O)[O-])c3)n2)cc(OC)c1OC,inactive: 5.15%
21,COc1ccc2nc3sc(C(=O)N4CCN(c5ccccc5)CC4)cc3cc2c1,inactive: -3.6%
22,COc1ccc(CCNC(=O)CCn2c(=O)c3ccccc3n(Cc3c(C)cc(C)cc3C)c2=O)cc1OC,inactive: 13%
23,CCS(=O)(=O)c1nc2ccccc2n1CC(=O)Nc1ccccc1C(=O)OC,inactive: 6.8%
24,Oc1c(C(c2ccc(Br)cc2)N2CCOCC2)sc2nc(-c3ccco3)nn12 (stereo unspecified),inactive: 15.1%
